Experimental findings from paper PMC4336329 (PLoS ONE, 2015) are described below.

Structures are written as SMILES. About 2,200 (0.71%) of roughly 310,000 compounds showed an effect of 50% or more. Effects have a minus sign here. Some of the results follow.

Chain of human ether-à-go-go-related gene (hERG) potassium channel (Q12809 whole entry, looked up): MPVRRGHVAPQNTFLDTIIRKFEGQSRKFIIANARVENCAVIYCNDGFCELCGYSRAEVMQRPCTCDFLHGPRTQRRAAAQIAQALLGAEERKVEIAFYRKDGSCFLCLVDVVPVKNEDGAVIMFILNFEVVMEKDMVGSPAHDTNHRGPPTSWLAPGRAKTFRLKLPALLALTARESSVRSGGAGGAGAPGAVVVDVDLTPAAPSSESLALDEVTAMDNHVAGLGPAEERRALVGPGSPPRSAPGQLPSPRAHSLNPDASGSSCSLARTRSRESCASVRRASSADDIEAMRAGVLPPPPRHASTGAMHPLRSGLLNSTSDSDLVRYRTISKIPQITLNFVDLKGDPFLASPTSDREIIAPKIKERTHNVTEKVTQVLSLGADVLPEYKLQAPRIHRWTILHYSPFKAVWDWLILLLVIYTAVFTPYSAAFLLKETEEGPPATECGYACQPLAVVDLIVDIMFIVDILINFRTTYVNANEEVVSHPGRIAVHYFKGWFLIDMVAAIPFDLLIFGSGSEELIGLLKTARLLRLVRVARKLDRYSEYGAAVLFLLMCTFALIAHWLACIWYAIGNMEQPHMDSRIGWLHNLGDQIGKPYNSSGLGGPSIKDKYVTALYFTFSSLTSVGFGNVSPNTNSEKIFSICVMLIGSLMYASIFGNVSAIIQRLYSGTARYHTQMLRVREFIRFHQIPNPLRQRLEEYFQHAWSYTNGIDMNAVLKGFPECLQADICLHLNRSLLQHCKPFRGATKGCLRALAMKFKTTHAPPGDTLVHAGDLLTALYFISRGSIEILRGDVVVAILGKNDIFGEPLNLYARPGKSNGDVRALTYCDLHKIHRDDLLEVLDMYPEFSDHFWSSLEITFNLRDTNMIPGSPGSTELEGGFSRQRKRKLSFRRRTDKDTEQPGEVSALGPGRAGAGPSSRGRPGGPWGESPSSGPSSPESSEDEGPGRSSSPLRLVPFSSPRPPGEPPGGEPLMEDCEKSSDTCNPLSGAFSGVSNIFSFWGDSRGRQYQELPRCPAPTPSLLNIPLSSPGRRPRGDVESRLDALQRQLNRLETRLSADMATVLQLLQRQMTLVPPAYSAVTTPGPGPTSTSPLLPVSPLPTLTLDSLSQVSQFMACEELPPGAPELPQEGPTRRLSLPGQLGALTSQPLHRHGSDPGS

This test has as its target human ether-à-go-go-related gene (hERG) potassium channel (human, UniProt Q12809). Briefly: primary screen, population patch clamp on CHO cells stably expressing hERG.
Consider `CC[N+](C)(CC)CC(=O)OCC1C(C)C=C(C)CC1C.[I-]` (stereo not shown), for which the “hERG current change (%, negative = inhibition) at 1uM” value is 12.8%.
For `CC(=O)Oc1ccc2ccccc2c1C(NC(=O)Cc1ccccc1)c1ccccc1Cl` (stereo not shown), the “hERG current change (%, negative = inhibition) at 1uM” value was 13%.
The value for `Cc1ccc(SCCC(=O)NCc2ccncc2)cc1` was -2.28%; that for `C#CCOCCOCCOCCNc1nc(N2CCN(C(=O)[C@H]([C@@H](C)CC)n3cc(CCC[NH+]=C(N)N)nn3)CC2)nc(N2CCN(C(=O)[C@H](Cc3ccc(O)cc3)n3cc(CCO)nn3)CC2)n1.[Cl-]` was 17.6%.
Under `O=C(CSc1nncn1-c1ccccn1)Nc1ccccc1Cl` stands 16.8%; under `Cc1ccccc1N(CC(=O)NC1CCCCC1)C(=O)CCCC(=O)Nc1ccccn1`, 11.2%; under `COc1cc(OC)cc(C(=O)NCCCCc2ccccc2)c1`, 2.88%.
Under `CCCCC(=O)OCCNC(=O)c1cc2ccccc2oc1=O` stands 8.48%.
As for `CCc1ccc(N2CC(C(=O)Nc3cccc(C(=O)NC4CC4)c3)CC2=O)cc1` (stereo not shown), the “hERG current change (%, negative = inhibition) at 1uM” value is 5.43%.
Consider `O=C(O)CCN1C(=O)c2ccc(NC(=O)CSc3ccccc3)cc2C1=O`, for which the “hERG current change (%, negative = inhibition) at 1uM” value amounted to 5.37%.
Under `O=C(O)CCC(=O)Nc1cccc2cccnc12` stands 7.78%; under `CCNC(=O)COc1ncnc2scc(-c3ccc(F)cc3)c12`, -2.9%; under `CN1CCN(c2nccc3c2ncn3C)CC1.Cl`, 8.33%.
Under `CC(C)(C)c1ccc(C(=O)NNC(=O)c2ccncc2)cc1` stands 14%; under `O=C(O)C1Cc2ccccc2-c2ccccc2C1`, 8.27%.
Consider `Cc1cc(C)nc(NC(=O)C(c2ccccc2)c2ccccc2)n1`, for which the “hERG current change (%, negative = inhibition) at 1uM” value was determined as 5.45%.
The value for `Cc1cccc(NC(=S)N(CCCN2CCOCC2)Cc2ccccn2)c1` was 0.627%; that for `O=C(Nc1nnc(S(=O)(=O)N2CCOCC2)s1)c1cccc(F)c1` was 15.5%.
Under `COC(=O)C1=C(O)CSC1=Nc1cccc(C(F)(F)F)c1` stands -2.75%.
Consider `O=C(CN1C(=O)CCSc2ccccc21)Nc1ccc2c(c1)OCCO2`, for which the “hERG current change (%, negative = inhibition) at 1uM” value came to 8.2%.
As to `CC(=O)Oc1ccc(N(C(C)=O)S(=O)(=O)c2ccc(Cl)cc2)c2ccccc12`, the “hERG current change (%, negative = inhibition) at 1uM” value came to 14.4%.
Under `CCOC(=O)C1CCCN(C(=O)c2cc(Nc3ccc(OC)cc3OC)nc3ccccc23)C1` (stereo not shown) stands 0.882%; under `O=C(CCCOc1ccc(Cl)cc1Cl)N/N=C/c1ccccc1`, 11%.
For `COc1ccc(NC(=O)CCS(=O)(=O)c2ccc3c(c2)CCCN3C(C)=O)cc1`, the “hERG current change (%, negative = inhibition) at 1uM” value came to 0.571%.
As to `O=C(CC1C(=O)NCCN1Cc1ccc(-c2ccccc2)cc1)NCCCn1cccn1` (stereo not shown), the “hERG current change (%, negative = inhibition) at 1uM” value worked out at 7.28%.
As for `O=c1cc(-c2ccccc2Cl)oc2c(NS(=O)(=O)c3ccccc3OC(F)(F)F)ccc(O)c12`, the “hERG current change (%, negative = inhibition) at 1uM” value is listed as 5%.
Under `Cc1c(N(C(=O)c2ccccn2)C2(C(=O)NC3CCCCC3)CCCCC2)c(=O)n(-c2ccccc2)n1C` stands 0.566%.
In the case of `C[n+]1ccc(/C=C/c2c[nH]c3ccc(F)cc23)cc1.[I-]`, the “hERG current change (%, negative = inhibition) at 1uM” value amounted to 8.21%.
On to `CCCCNc1ccc2nsnc2c1[N+](=O)[O-]`, for which the “hERG current change (%, negative = inhibition) at 1uM” value was determined as 4.7%.
Under `CN(C)S(=O)(=O)c1ccc(C(=O)Nc2cc3c(cc2C(=O)O)OCCCO3)cc1` stands 8.36%; under `CC(C)(C)c1cc[n+](/C(C(=S)NC2CC2)=C(/[O-])c2ccc(Cl)s2)cc1`, -20.6%; under `Cn1cccc1CNC(=O)Nc1ccc(Cl)cc1`, -16.8%.
The value for `Cc1cc(NC(=O)c2c([N+](=O)[O-])cnn2C)no1` was 9.91%; that for `O=C(CN1C(=O)c2ccccc2S1(=O)=O)Nc1ccc(S(=O)(=O)N2CCCC2)cc1` was -1.28%.
For the molecule `Cc1no[n+]([O-])c1COc1ccc(/C=C2\NC(=S)NC2=O)cc1`, the “hERG current change (%, negative = inhibition) at 1uM” value is given as 2.21%.
The value for `COc1ccccc1NC(=O)Cn1cnc2c(cnn2-c2ccccc2)c1=O` was 7.99%; that for `CCOC(=O)c1c(NC(=O)Cn2nc(C(=O)O)c3ccccc3c2=O)sc2c1CCC(C)C2` (stereo not shown) was 12.4%; that for `COc1ccccc1NC(=O)CSc1ccc(-c2ccc(-n3cccn3)cc2)nn1` was 12.5%.
Take `O=C(NCCCO)C(=O)NCc1ccccn1`: the “hERG current change (%, negative = inhibition) at 1uM” value turned out to be 11.6%.
`Cc1onc(-c2c(F)cccc2Cl)c1C(=O)c1ccccc1O`: the “hERG current change (%, negative = inhibition) at 1uM” value is recorded as 6.42%.
The value for `CC(=O)N(Cc1ccccc1)Cc1nc2sc(C)c(C)c2c(=O)[nH]1` was 10.4%; that for `Cn1c2c(c(=O)n(C)c1=O)C(NS(=O)(=O)c1ccccc1)(C(F)(F)F)C(=O)N2` (stereo not shown) was 12.9%.
Under `CC(=O)c1cc2c(cc1NS(=O)(=O)c1cccc(C(=O)O)c1)OCO2` stands 17%.
